The BET-seq Pho4 binding data (Le et al. 2018)
The other results are listed elsewhere or left out. These are noisy estimates, calculated here from bound and input reads.

The sequences below were run against T1, Pho4 (S. cerevisiae) (UniProt P07270) (assay: relative binding free energy (BET-seq); higher = weaker binding). Conditions: reference: library average.
T1 sequence: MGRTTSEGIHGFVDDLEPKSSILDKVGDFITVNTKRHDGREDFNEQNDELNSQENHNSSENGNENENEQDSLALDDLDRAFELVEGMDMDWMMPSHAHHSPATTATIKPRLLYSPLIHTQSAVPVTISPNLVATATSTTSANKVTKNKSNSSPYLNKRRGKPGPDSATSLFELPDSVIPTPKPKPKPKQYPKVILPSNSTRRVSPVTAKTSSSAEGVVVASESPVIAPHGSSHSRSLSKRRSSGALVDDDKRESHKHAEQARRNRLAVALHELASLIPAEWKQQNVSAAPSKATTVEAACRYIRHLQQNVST

Row | Sequence | relative binding free energy [kcal/mol]
1 | GAGGACACGTGGTGTT | -0.01
2 | AGATACACGTGGGGTT | -0.1
3 | CGGATCACGTGGTGCG | 0.04
4 | AGGATCACGTGTGGAA | 0.15
5 | TCGGGCACGTGATATG | -0.11
6 | AATTGCACGTGAATGG | 0.26
7 | AGATTCACGTGATGGG | 0.34
8 | AGGTGCACGTGCGGCA | -0.08
9 | TATGGCACGTGTGGGA | -0.04
10 | GATGTCACGTGGAGTT | 0.1
11 | GAATGCACGTGGAATT | 0.05
12 | ACTGACACGTGTTGAG | 0.19
13 | GTTGTCACGTGAAGGA | 0.29
14 | GAAGGCACGTGTGTGA | -0.05
15 | AGTAGCACGTGTGTCA | -0.04
16 | TGGATCACGTGGAATT | 0.3
17 | ATGCTCACGTGTGGTG | 0.14
18 | GTAGTCACGTGCCGGT | 0.09
19 | TGTATCACGTGCAGTA | 0.01
20 | TGACGCACGTGAGGAT | 0.15
21 | TTACTCACGTGTGATT | 0.25
22 | ATGGGCACGTGAAATG | 0.21
23 | GTTACCACGTGTTGGG | 0.03

Row | Sequence | relative binding free energy [kcal/mol]
24 | AGGCACACGTGGTGAG | -0.04
25 | TGCTACACGTGGTGGT | 0.03
26 | GTTAGCACGTGATAGT | 0.13
27 | AGTTGCACGTGCTGGG | -0.02
28 | TTTTCCACGTGATTAG | 0.2
29 | TAGTCCACGTGGGGTC | -0.1
30 | AGATTCACGTGGGCGG | 0.23
31 | TGCTACACGTGTAGGA | 0.14
32 | TTCATCACGTGAGTTT | 0.44
33 | TTAGACACGTGCGATG | 0.04
34 | TGGTCCACGTGTGGGC | 0.04
35 | TATATCACGTGTTAGT | 0.16
36 | TCTTGCACGTGAGAGT | 0.13
37 | TGCTACACGTGACGGG | 0.32
38 | AGTAGCACGTGGGACT | -0.08
39 | TTGTTCACGTGTACTA | 0.14
40 | TTGGTCACGTGTAATC | 0.34
41 | CGGTGCACGTGCGGGC | -0.01
42 | TTGCACACGTGGCGGT | -0.14
43 | GCGTGCACGTGGGGGA | -0.18
44 | GAGCGCACGTGAAGGG | 0.15
45 | CGTTTCACGTGTCTTT | 0.23
46 | TGTTACACGTGATGGC | 0.34

Row | Sequence | relative binding free energy [kcal/mol]
47 | CATGGCACGTGGGTTA | -0.14
48 | TCTTGCACGTGTGCTT | 0.03
49 | ATAGTCACGTGTTTTT | 0.06
50 | GGTAGCACGTGAGAGC | 0.27
51 | GTAAACACGTGGGAAT | -0.01
52 | GGGGACACGTGGAAAT | 0.26
53 | GGTGGCACGTGAAAGT | 0.26
54 | TGTTCCACGTGTCGTG | 0.04
55 | TATCGCACGTGGTGGG | -0.08
56 | CTAGTCACGTGGAGGT | -0.02
57 | TTGTTCACGTGTTTGA | 0.35
58 | CGCAGCACGTGGGAGT | -0.05
59 | TAAGTCACGTGGGTGT | -0.05
60 | AGCTGCACGTGGCGGG | -0.12
61 | GTGAACACGTGTTAAG | 0.14
62 | GTCATCACGTGAGGGG | 0.44
63 | TATGGCACGTGATGCT | 0.15
64 | TTACACACGTGATTGT | 0.1
65 | GAGGCCACGTGTAGTT | 0.09
66 | CTTTGCACGTGGGGCT | -0.16
67 | TTGTGCACGTGTGCCT | -0.08
68 | CTAGTCACGTGATTGG | 0.27
69 | TGTGACACGTGCTGGA | -0.06

Row | Sequence | relative binding free energy [kcal/mol]
70 | GTGATCACGTGGGGCG | 0.06
71 | GGAGGCACGTGTTTAG | -0.11
72 | GGTGTCACGTGTGAAA | -0.01
73 | TCTTACACGTGTGGTT | 0.26
74 | GTGTACACGTGTTGGA | 0.06
75 | GATGGCACGTGTGCTA | 0.05
76 | CAGGACACGTGGGTTA | -0.14
77 | TAATTCACGTGTTGTG | 0.21
78 | GTGAACACGTGATATG | 0.27
79 | AGTTACACGTGTGTCA | 0.22
80 | GGAGCCACGTGCGGGT | -0.02
81 | TAAGGCACGTGAGTTG | 0.17
82 | GGTGGCACGTGTCGAG | 0.02
83 | ATGGGCACGTGTGCCT | -0.02
84 | AAGAACACGTGTGGTA | 0.08
85 | GCGTTCACGTGGTGCT | 0.21
86 | ATAGTCACGTGGTGTT | 0.03
87 | GGGGACACGTGAGACG | 0.22
88 | ACGTACACGTGGGTAT | -0.02
89 | GTTCACACGTGAAGGG | 0.47
90 | GGGCTCACGTGGGGCG | 0.02
91 | ATTGACACGTGTTCTT | 0.08
92 | TGGGGCACGTGAGGGT | 0.14

Row | Sequence | relative binding free energy [kcal/mol]
93 | GTTGGCACGTGGAAGG | 0.11
94 | ATGGACACGTGTGGGT | 0.15
95 | AGAGGCACGTGGTTCT | -0.14
96 | CTGGGCACGTGAGAGA | 0.27
97 | AGTCACACGTGAGGGT | 0.23
98 | GAGTGCACGTGCGTGA | 0.04
99 | TTCGTCACGTGTTTAG | 0.11
100 | ATGAACACGTGGGGGC | -0.13
101 | GTTTTCACGTGTTCGT | 0.38
102 | ACTAGCACGTGAGGTG | 0.1
103 | GGCAGCACGTGGGGGC | -0.25
104 | TTTGGCACGTGGGTGA | -0.14
105 | GAATACACGTGTTGGT | 0.28
106 | ATATTCACGTGTTCGG | 0.13
107 | GAAATCACGTGGTATT | 0.14
108 | TGGTACACGTGGAGTC | 0.12
109 | CGTTTCACGTGTGAGA | 0.38
110 | AGAATCACGTGGGTTT | 0.11
111 | TGCTGCACGTGTGTGG | 0.02
112 | TTTGTCACGTGGGCTT | -0.02
113 | GTTCACACGTGTTAAG | 0.25
114 | ATAGTCACGTGGTGGC | 0.07
115 | AGATTCACGTGTGAGG | 0.44
